PubChem BioAssay AID624417 (National Center for Advancing Translational Sciences (NCATS), 2012)
Among all 410,000 compounds or so, about 6,400 (1.6%) were called active. Inconclusive results, whose numbers are uncertain, are shown with a selection of clear calls. Calls follow the shape of the dose curve; as a rule, active = well fitted inhibition curve with a large enough effect; inconclusive = small, poorly fitted or top-dose-only effect; inactive = no such curve, though single readings can be large or run the other way. Where the call is inconclusive, the potency comes from a doubtful curve fit.

biological target: Glucagon-like peptide 1 receptor (Homo sapiens) (UniProt P43220); test: qHTS of GLP-1 Receptor Inverse Agonists (Inhibition Mode); conditions: HEK293 GLP-1R CRE-luciferase, luminescence, 24 h, GLP-1R form is constitutively active; activity change, negative = inhibition: at 38.3 µM (top of the series) unless noted; also: nearly all actives have a fitted effect of over 55% in size
Method in brief: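 Inverse agonists were sought by their lowering of basal cAMP reporter luciferase output in HEK293 cells stably carrying constitutively active human GLP-1R, after 24 h compound treatment.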
% is scaled to controls: 0 for no effect and ±100 for the full control effect; potency is read from the fitted curve at half-maximal effect; tags tell the direction and shape of the fitted curve.

Chain of UniProt P43220 (P43220 whole entry, looked up): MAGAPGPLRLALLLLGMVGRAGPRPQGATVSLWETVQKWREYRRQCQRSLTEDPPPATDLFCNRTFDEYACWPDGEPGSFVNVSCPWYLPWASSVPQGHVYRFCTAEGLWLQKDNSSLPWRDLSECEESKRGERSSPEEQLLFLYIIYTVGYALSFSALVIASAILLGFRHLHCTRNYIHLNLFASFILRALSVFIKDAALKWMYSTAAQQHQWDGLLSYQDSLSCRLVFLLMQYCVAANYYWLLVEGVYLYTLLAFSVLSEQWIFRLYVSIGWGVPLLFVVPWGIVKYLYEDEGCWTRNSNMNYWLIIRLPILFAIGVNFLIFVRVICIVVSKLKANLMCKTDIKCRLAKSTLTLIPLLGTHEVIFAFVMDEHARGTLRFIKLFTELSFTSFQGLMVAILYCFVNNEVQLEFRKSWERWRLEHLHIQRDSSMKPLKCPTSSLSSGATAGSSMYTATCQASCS

Potency, inconclusive:
Cc1nc(C(=O)NCCC(C)C)sc1C1(C)CC(c2cccc([N+](=O)[O-])c2)=NO1 (stereo not drawn) 28.2 µM [inhibitor, single point], COc1cc2oc(=O)cc(-c3cccc(-c4cccc(C)c4)c3)c2c(OC)c1OC 12.6 µM [inhibitor, single point], COc1ccc(-c2nn(-c3ccccc3)cc2/C=N/N=C(N)N)cc1OC 28.2 µM [inhibitor, single point], COc1ccccc1NC(=O)c1csc2c1CCC(C)C2 (stereo not drawn) 28.2 µM [inhibitor, single point], COc1ccc(C(CCNCc2ccc(OC(C)C)cc2)c2ccccc2OC)cc1 (stereo not drawn) 12.6 µM [inhibitor, single point], Oc1c(Br)cc(Br)cc1CNc1ccccn1 28.2 µM [inhibitor, single point], CC(NC(=O)C1CCN(CCOc2ccc(Cl)cc2)CC1)c1cccc2ccccc12 (stereo not drawn) 20 µM [inhibitor, partial curve, poor fit], O=C(Nc1nc2ccccc2n1Cc1ccccc1)c1ccco1 20 µM [inhibitor, single point], CC(=O)NC(c1ccc2ccccc2c1)c1ccc2cccnc2c1O (stereo not drawn) 7.94 µM [inhibitor, partial curve, poor fit], OC(c1cc(F)cc(Cl)c1)c1ncc(-c2ccc3ccccc3c2)[nH]1 (stereo not drawn) 22.4 µM [inhibitor, single point], O=C(Nc1ccccc1Cl)C1CCCN1C(=O)OCc1ccccc1 (stereo not drawn) 3.55 µM [inhibitor, full curve, poor fit], O=C(NN1C(=O)NC2(CCCCC2)C1=O)c1ccc(-c2ccc([N+](=O)[O-])cc2)o1 7.94 µM [inhibitor, partial curve, poor fit], O=C(CSC1=NCCN1)Nc1cccc([N+](=O)[O-])c1 28.2 µM [inhibitor, single point], CCOc1ccccc1C(=O)N/N=C/c1coc2ccc(Cl)cc2c1=O 10 µM [inhibitor, partial curve], CN(CC(=O)Nc1cccc(F)c1)C(=O)CSc1ccc(Br)cc1 14.1 µM [inhibitor, single point], COc1ccccc1NC(=O)C(C)NC(c1ccccc1)c1ccccc1 (stereo not drawn) 3.55 µM [inhibitor, full curve], Cc1cc(OCC(=O)O/N=C(\N)c2ccccc2)ccc1Br 14.1 µM [inhibitor, single point], O=C(NCCn1cc(SCc2ccc(Br)cc2)c2ccccc21)c1cccs1 28.2 µM [inhibitor, single point], NC(=O)C1=C(c2ccccc2)c2ccccc2C1=O 28.2 µM [inhibitor, single point], CCOC(=O)N1CCN(c2c(NCc3ccc(Cl)cc3)c(=O)c2=O)CC1 2.24 µM [inhibitor, full curve, poor fit], COC(=O)Cn1c(=O)c2c(n(Cc3ccccc3)c1=O)N/C(=C/c1ccc(OC)cc1)C2=O 28.2 µM [inhibitor, single point], COc1ccc(NC(=O)c2cccn(CC=C(C)C)c2=O)cc1 28.2 µM [inhibitor, single point], CCOc1ccccc1NC(=O)CN1CCc2ccccc2C1 12.6 µM [inhibitor, partial curve], Cn1c(=O)c2c(-c3ccc(Br)cc3)n(Cc3ccc(F)cc3)cc2n(C)c1=O 28.2 µM [inhibitor, single point], Cc1ccc(S(=O)(=O)NCc2ccccc2)cc1C(=O)N1CC(C)CC(C)C1 (stereo not drawn) 28.2 µM [inhibitor, single point], Cn1c(SC2=CS(=O)(=O)c3ccccc32)nc2ccccc21 28.2 µM [inhibitor, single point], C=CCOC(=O)C1=C(C)NC(SCC(N)=O)=C(C#N)C1c1ccc(C)cc1 (stereo not drawn) 12.6 µM [inhibitor, single point], Cc1c(NC(=O)c2ccccc2NS(=O)(=O)c2ccc(Br)cc2)c(=O)n(-c2ccccc2)n1C 3.55 µM [inhibitor, partial curve, poor fit], CN1CC(=O)N2C(c3ccc(Cl)cc3)c3[nH]c4ccccc4c3C[C@H]2C1=O (stereo partly drawn) 14.1 µM [inhibitor, single point], CN(C)S(=O)(=O)c1cccc(NC(=O)CSc2nc3c(cc2C#N)C(=O)CC(C)(C)C3)c1 28.2 µM [inhibitor, single point], O=C(CSc1nccn1-c1cccc(Cl)c1)Nc1cccc2ccccc12 28.2 µM [inhibitor, single point], O=C(NC(=S)Nc1ccc(N2CCOCC2)cc1)c1ccc2c(c1)OCCO2 2 µM [inhibitor, full curve, poor fit], Fc1ccc(N2CCN(c3nc(-c4ccco4)cc(C(F)(F)F)n3)CC2)cc1 11.2 µM [inhibitor, partial curve, poor fit], COc1ccc(C)cc1-n1cnc2cc(C(=O)NC3CCCCCC3)ccc21 14.1 µM [inhibitor, single point], COc1ccc(N(C)S(=O)(=O)c2cccc(C(=O)N3CCN(Cc4ccc5c(c4)OCO5)CC3)c2)cc1 10 µM [inhibitor, partial curve, poor fit], Cc1nn(CCC(N)=S)c2nc(-c3cccs3)cc(C(F)(F)F)c12 15.8 µM [inhibitor, partial curve, poor fit], COc1ccccc1Cc1c(-c2ccc(F)cc2)nc2c(C)cc(Br)cn12 6.31 µM [inhibitor, partial curve, poor fit], COc1cccc(C2CC(c3cccs3)=NN2C(=S)Nc2ccccc2)c1OC (stereo not drawn) 7.08 µM [inhibitor, partial curve, poor fit], COc1ccc(-n2cnc3cc(C(=O)NC4CCCCCC4)ccc32)cc1 28.2 µM [inhibitor, single point], COc1ccc(CNC(=O)CCOc2ccc(C(C)(C)C)cc2)cc1 7.94 µM [inhibitor, partial curve, poor fit], CCN1CCN(Cc2ccc(NC(=O)c3cc(NC(=O)c4ccno4)cc(OC)c3)cc2C(F)(F)F)CC1 14.1 µM [inhibitor, single point], O=C(CSc1nnc(COc2ccc(Cl)cc2)n1Cc1ccco1)N1CCNC1=O 28.2 µM [inhibitor, single point], Cc1cccc(Nc2c(-c3ccsc3)nc3nc(C)cc(C)n23)c1 3.98 µM [inhibitor, single point], Cc1ccc2c(c1)C1(C(=O)N2)N2CCCC2C(C(=O)c2ccc3ccccc3c2)C12C(=O)Nc1ccccc12 (stereo not drawn) 28.2 µM [inhibitor, single point], CCN1C(=NCC(C)C)N[C@@H](c2cccc(C(F)(F)F)c2)C(C(=O)OC)=C1C 11.2 µM [inhibitor, single point], O=S(=O)(NCC(Nc1ccc(Cl)cc1)c1ccccc1)c1ccc(Cl)cc1 (stereo not drawn) 3.16 µM [inhibitor, partial curve, poor fit], OCC1(Cc2ccccc2C(F)(F)F)CCN(Cc2ccncc2)CC1 10 µM [inhibitor, single point], COc1cc(CCCN2CCNC[C@H]2Cc2cccc3ccccc23)cc(OC)c1OC 10 µM [inhibitor, partial curve, poor fit], O=C(NCCOc1ccc(Cl)cc1)C1CCCCC1 10 µM [inhibitor, single point]

Potency, active:
Clc1ccc(CNc2nc(CN3CCOCC3)nc3scc(-c4ccccc4)c23)cc1 3.16 µM, COc1cccc(/C=C2\SC(=S)N(CCCC(=O)N3CCCC3)C2=O)c1 5.01 µM

Activity change, negative = inhibition, inactive:
CCOc1ccccc1-c1nc(Cn2c(=O)cc(C)c3c(C)nn(-c4ccccc4)c32)c(C)o1 6.98%, Cc1ccccc1NC(=O)CSc1nc2ccc(Nc3nc(N4CCOCC4)nc(N4CCOCC4)n3)cc2s1 -16.8%, COc1ccccc1CNC(=O)c1cnc2ccccn2c1=O 20.8%, Cc1nc(C(F)(F)F)ccc1C(=O)N1CCC1(C)C(=O)NS(=O)(=O)c1cccc(F)c1 (stereo not drawn) 19.4%, COc1cccc(C(=O)Nc2cccc(-c3nc4ncccn4c3C)c2)c1 6.21%, CC1CCCCN1S(=O)(=O)c1ccc(C(=O)Nc2sccc2C(N)=O)cc1 (stereo not drawn) 30.3%, O=C(O)c1ccc2nc(-c3cc4cc(Cl)ccc4oc3=O)[nH]c2c1 28.7%, COc1ccc(/C=C/c2ccncc2)cc1OC 216%, CCc1nc2ccc(C(=O)N(C)CCN(C)C)cn2c1N(CC)CCOC 21.2%, O=C(CCCCn1c(=O)c2ccccc2n(Cc2cccc(F)c2)c1=O)NCc1ccc2c(c1)OCO2 -2.53%, COCc1cc(C)c(C#N)c(=S)[nH]1 -14.8%, O=c1c2ccccc2n(Cc2c(F)cccc2Cl)c(=O)n1CCc1ccccc1 13.5%
